Measurements taken from the supplement of paper PMC10126150.
Values marked as one replicate rest on one cluster of the flow cell; about a third of the high ones do not repeat.

Test system: ATP
Assay: switch fluorescence ratio, 500 uM ATP over buffer (Cy3 cluster intensity, sum of 5 cycles each) (fold (ratio)); higher = stronger signal-on switching upon ATP binding; sequences stand for … in TCGTCGGCAGCGTCAGATGTGTATAAGAGACAGTTTTTTTTTTTTTTTTTTTTTTTTT…TC
Conditions: aptamer strand: ATP DNA aptamer (quencher-CACCTGGGGGAGTATTGCGGAGGAAGG + anchor), 100 nM annealed; ATP concentration: 500 uM; one replicate
Procedure, shortened: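 Per cluster, summed Cy3 intensity from the target cycles was divided by that from the buffer cycles to give the fluorescence ratio, then averaged per switch-domain sequence. Clusters outside 100-1000 RFU were excluded. The Cy3-labelled switching-strand clusters, on a modified Illumina MiSeq flow-cell, were annealed to 100 nM quencher-labelled ATP aptamer and imaged in selection buffer, then after 15 min with 500 uM ATP at 22 °C, for five cycles with NaOH stripping and re-annealing between them.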
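Further: ATP exposure 15 min at 22 °C before imaging.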

Sequence	switch fluorescence ratio
ACGGACGGCT	1.14
ACGGTAACCA	1.26
ATTGGTGGCA	1.04
ATCTACATGT	1.01
CCTCCTTGA	1.12
TACTGGTGTT	1.03
GCCATTAGAT	0.97
GCGCACGCTT	1.05
ACGGCCGCGA	0.902
GGAACCACGC	1.08
TTAAGCGTAA	1.07
TCTTCGGCCA	1.06
CTAGTGACA	1.05
GCCAGGGGCG	0.992
ATCCGCGCCA	1.76
TCATAATCCC	1.03
TCTTATGGTA	1.02
AACGCCCAAT	1.07
TTGAAGTTA	1.04
CTGGACTTTA	1.06
GTGTCATGTT	0.975
GATTATCGCA	1.01
GTGGTTTCGT	0.991
TAGTAAGTGA	1
CGGGGAGCTC	1
TTATGAA	0.986

Sequence	switch fluorescence ratio
CGTGAGCGTA	0.966
GCTGGGGGTA	1.01
TGGATCTATA	1.01
AATTGTATGA	0.994
CAATGGATCA	1.26
AACCACGACG	1.19
CGAGAAACAT	0.967
CAAGAGCTTC	1.09
ATTTAACCGG	1.01
TCGCTCTCGC	1.04
GTCATACGTG	1.04
TGGGGAACGT	0.993
GAAATTCAGA	1
CTAACCCGGA	0.986
GGAATGCACT	1.01
TTTGGTGCAC	0.991
CTAGGCCATC	1.05
TCTTCGCTGA	1.35
TGCGCCTAGG	0.951
ACTATTTTAG	0.982
TCGTTCGGTC	1.71
AATTTCATGG	0.964
CTCCCTATCA	1.1
TCGTTGACCT	1.05
CGGTTTGCGA	0.937
TAACCCGAAA	1.17

Sequence	switch fluorescence ratio
TTGCGAGTAA	1.03
TGTCTTATGC	0.993
CTCATATAAG	0.991
GTGGAGAACC	1.01
TTGGGTGATG	1.05
GTGGCAATCG	1.04
AGGCTGCCTG	1.01
ATACGCCCCG	1
GGCCCGTAAC	1.12
CGTCAGAAC	1.09
GAATCCGGT	1.02
GGGTTAAATC	0.994
ATACTGATCG	1.06
GCACAATTGG	0.976
CGGCGTCGGA	1.05
GGGATAGGG	0.983
AGGCTAAGTT	1.05
CTGTGGCCTT	1.04
CATTGAGCGA	1.03
CTGCTTATTG	0.975
ACGCCGGGGA	1.05
GATTATCCGG	1.01
GTTCTCGATC	1.04
TAGAGGGTGA	0.994
TTACGGATTT	1.07
CCCTACCGCG	1.88

Sequence	switch fluorescence ratio
ATATATTATT	0.989
CATCTGGACC	1.09
CACGTTTATT	0.986
GTGGAGCTCG	0.987
AGTCGCACGC	1.04
ACGATTCGGG	1.02
TTCTGTACCG	0.929
CTGCGTTGTT	2.47
TTCCCATGGA	0.966
TGCTCTTACG	1.02
ACGCATTGAC	4.34
TCTATTAGCA	1.02
TTGCCACAAG	1.01
TGTCATACAG	0.996
CCTTGTGGGT	1.24
GGGTTCATTA	0.935
GGAACGTATA	1.08
TGCGTCCCAT	0.976
GCTCAGGTTC	1.05
TAGTGAAAGG	0.993
CAAGGACGAC	1.1
TTTGACACTT	1.03
GCTCTCTAGT	0.987
ATAAGTTGAG	1.03
GACTGCTAGT	1.02
AGGCATTTAC	1.61

Sequence	switch fluorescence ratio
CCATCTGTA	1.03
ATAGCATCTG	1.01
AAGCGAACCA	1.01
TACTTGAAGC	0.983
TTCGGCCTTA	0.987
TCTATCGTCT	0.96
CGTGGGGTAA	1.04
TTAAGATTTG	1.02
TTTTCACATG	1
CATCAGAGTG	1.05
TTACCAGTTC	0.992
TTCGGGGTT	1.02
TCGTTTCTCT	0.997
TTACGCCTGG	1.66
ATCTGTTGGT	1.02
TTAGACGGTA	1.11
GCATACACCA	1.31
GCAGAACCTA	1.04
AGCTTGTTGA	1.02
AAGGAAGCGG	1.01
GGATTGGTTA	0.965
ATCTCCGTA	1.1
ATACCTAACA	1.13
ATCGTAGAGT	0.965
ATAAAGCTAA	1.03
GCAGCGTTTG	0.987

Sequence	switch fluorescence ratio
TCGTGGCGTA	0.988
GATTTGATCA	0.999
TTAGGCCTTG	0.967
CCGGTTTGCC	1.01
CGCTTCTTAC	3.14
AACTAGTCCT	1.06
TTATCACGCT	1.06
TCGACCGTAA	2.27
GGTTTGTATT	0.967
TATGAAGCTC	1.04
CAGCTCTATG	1.03
TTTTTATCCT	1.04
GCAGGAGGA	0.957
GGGGAGAACC	0.967
TTTAGCGCTT	0.966
CTAATTGGGC	1.03
GTGAACGCTT	1.12
TGTGGCTGTT	0.974
AGTGTGGAC	1.03
ATAAGTTGCG	0.97
GGCAGCTTGA	1.02
TGCACCACAC	1.39
AATTATTTG	1
ACGGCCTGTG	1.01
GAAGAGAGTT	0.968
GTTAGTCGGG	0.957

Sequence	switch fluorescence ratio
TAGTCCTGTG	0.98
GTCTGTGATG	0.998
TTGTATGGAA	0.976
TGCTACGCC	1.24
TGTAGCTCTC	1.02
GTGTGATGGA	1.05
TATTTTCCAT	1.01
GACGTGTTGA	0.984
CCACCGAGAC	4.57
TTGTATTCCC	1.01
CAGGCGGGGT	0.988
TCCGGCTCCC	2.01
CAAATTGGTA	0.996
TCACTATGCG	0.986
CGGGCTTTGC	0.988
GCACGCCCTA	1.06
TCACTATAGT	1.07
AATATAAGAT	1.03
GGGTAACGG	1.05
ATGATTAAAT	0.94
CTCTGTCGGT	1.14
GAACTCAGGG	1.04
TGTCAC	0.989
ATTAAGAGGG	0.981
TTCTTGAAGT	0.973
CCGGCGGGCC	1.02

Sequence	switch fluorescence ratio
CTGTATAGAT	0.941
GGCCCACGA	1
CAATATAATT	1.03
AAAATTGATT	1.02
TTTATATGGG	1.01
AAACTCATTC	1.03
TAGGCTTCC	2.38
GACCTAGTTT	1
GTTGCTTTAA	1.01
CGCCCTGACA	1.03
TGGTTGTGGC	0.974
GTTGTACCTT	1.04
TGGTACCAGC	1.01
GGTTATCAGT	0.974
TCGGGTGATT	1.04
GCGAAAAGTA	1
CATGGGGTAC	1.01
AAAAAATCAT	1.05
GTTGGGTCGT	0.987
